From paper PMC4336329 (PLoS ONE, 2015)
Out of some 310,000 compounds screened, about 2,200 (0.71%) showed an effect of 50% or more. Effects have a minus sign here. Some of the results follow.

Target: human ether-à-go-go-related gene (hERG) potassium channel (human, UniProt Q12809)
Assay: primary screen, population patch clamp on CHO cells stably expressing hERG

Chain of human ether-à-go-go-related gene (hERG) potassium channel (Q12809 whole entry, looked up): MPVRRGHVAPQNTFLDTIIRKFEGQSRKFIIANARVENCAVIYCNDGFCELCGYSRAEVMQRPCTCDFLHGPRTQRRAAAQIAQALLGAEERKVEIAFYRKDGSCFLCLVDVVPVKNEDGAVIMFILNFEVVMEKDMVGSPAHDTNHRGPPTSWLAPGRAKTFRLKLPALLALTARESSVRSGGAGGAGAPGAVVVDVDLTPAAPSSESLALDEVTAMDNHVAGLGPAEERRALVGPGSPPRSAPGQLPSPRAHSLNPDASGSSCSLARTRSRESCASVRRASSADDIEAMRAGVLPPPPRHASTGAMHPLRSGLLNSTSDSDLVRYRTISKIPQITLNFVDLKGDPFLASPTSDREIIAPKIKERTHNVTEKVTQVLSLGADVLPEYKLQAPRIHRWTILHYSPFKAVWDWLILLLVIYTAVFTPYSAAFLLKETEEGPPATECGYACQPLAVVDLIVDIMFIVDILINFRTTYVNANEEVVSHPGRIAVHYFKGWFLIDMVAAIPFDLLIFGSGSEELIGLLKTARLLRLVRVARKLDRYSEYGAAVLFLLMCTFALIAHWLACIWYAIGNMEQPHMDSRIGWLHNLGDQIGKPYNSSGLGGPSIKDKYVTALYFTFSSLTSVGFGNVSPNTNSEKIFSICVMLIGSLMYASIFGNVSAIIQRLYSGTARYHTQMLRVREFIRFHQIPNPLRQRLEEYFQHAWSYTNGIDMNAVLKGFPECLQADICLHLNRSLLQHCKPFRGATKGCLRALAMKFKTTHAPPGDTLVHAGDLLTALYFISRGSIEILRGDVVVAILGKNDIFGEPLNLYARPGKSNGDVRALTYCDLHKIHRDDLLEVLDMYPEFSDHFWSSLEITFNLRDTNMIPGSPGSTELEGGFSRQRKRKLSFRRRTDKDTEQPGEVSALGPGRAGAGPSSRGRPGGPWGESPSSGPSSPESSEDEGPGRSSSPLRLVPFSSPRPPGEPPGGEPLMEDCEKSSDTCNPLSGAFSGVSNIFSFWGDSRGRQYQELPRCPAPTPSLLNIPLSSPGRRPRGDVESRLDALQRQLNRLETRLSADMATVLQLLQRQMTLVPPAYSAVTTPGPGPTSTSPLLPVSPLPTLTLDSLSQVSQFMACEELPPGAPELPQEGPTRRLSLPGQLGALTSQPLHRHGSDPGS

Row | SMILES | hERG current change (%, negative = inhibition) at 1uM [%]
1 | C=CCn1c(=O)c2ccccc2n2c(SC(C)C(N)=O)nnc12 (stereo not shown) | 9.68
2 | COc1cccc(N2CC(C(=O)Nc3nnc(SCc4cccnc4)s3)CC2=O)c1 (stereo not shown) | -0.498
3 | COc1cc(-c2noc(C)c2C#CC2(O)CCCCC2)cc(OC)c1OC | 18.9
4 | CC(=O)Nc1ccccc1Sc1ccccc1 | -10.4
5 | O=C(Cn1ncc2c3ccccc3n(Cc3ccc(F)cc3)c2c1=O)N1CCC2(CC1)OCCO2 | -8.53
6 | CCOc1ccc(CNC(=S)N/N=C/c2cccnc2)cc1 | 0.196
7 | CCCCNC(=O)c1cc2nc(-c3ccccc3)cc(C(F)(F)F)n2n1 | 0.288
8 | CCCCCCN=CC1=C(O)C(C(=O)OC)C(C)(C)CC1=O (stereo not shown) | 7.79
9 | O=C(CN(CCc1ccccc1)C(=O)CNS(=O)(=O)c1ccccc1)NCC1CCCO1 (stereo not shown) | 7.11
10 | O=C(Nc1ccccc1)c1cccc(C(F)(F)F)c1 | 10.8
11 | COc1ccc(CCN2C(=O)CCC2(C)C(=O)NCc2cccnc2)cc1OC (stereo not shown) | 17.7
12 | O=C(Cn1cccc1C(=O)c1ccccc1)NCCc1ccc(Cl)cc1 | 10.6
13 | Cc1oc(-c2ccc(Cl)cc2)nc1CS(=O)CC(=O)NC1CCCCCC1 (stereo not shown) | 14.4
14 | Cl.O=C(OCCN1CCCCC1)c1cccc(Cl)c1 | -3.25
15 | COc1ccc(NC(=O)CCS(=O)(=O)c2cccc3nonc23)cc1Cl | 14.2
16 | CCC/C(=N/NC(=O)c1ccc2c(c1)OCO2)c1cccs1 | 8.98
17 | N#CC1=C(SCc2ccccc2)NC(=O)C(C#N)C12CCCC2 (stereo not shown) | 8.21
18 | CC1CN(C(=O)c2ccccc2Nc2ccc(SC(F)F)cc2)CC(C)O1 (stereo not shown) | -2.86
19 | COC(=O)C1CC(=O)N(Cc2ccccc2)C1 (stereo not shown) | 10.4
20 | CC(=O)N1CCN(c2ccc(NS(=O)(=O)c3ccc(C)cc3)cc2)CC1 | 11.3
21 | O=C(CCCn1c(=S)[nH]c2ccsc2c1=O)Nc1ccc2c(c1)OCCO2 | 6.26
22 | CC(=O)c1ccc(NC(=O)CSc2nc(Nc3ccccc3)nc(N3CCOCC3)n2)cc1 | 4.14

Row | SMILES | hERG current change (%, negative = inhibition) at 1uM [%]
23 | Cc1ccc(C(=O)N2CCC3(CC2)Oc2ccc(F)cc2C(=O)C32CC(c3ccc(Cl)cc3)=NO2)s1 (stereo not shown) | 18.9
24 | C[C@H]1[C@@H](c2ccccc2)O[C@@H](c2ccccc2Br)N1C | 6.25
25 | O=C(Nc1ccc(Cl)c(Cl)c1)Nc1nnc(-c2ccncc2)s1 | 7.89
26 | O=[N+]([O-])c1cc(S(=O)(=O)C(F)(F)F)ccc1N1CCN(c2ccccc2)CC1 | 2.35
27 | Cc1c(C(=O)Nc2ccc(F)c(F)c2)oc2ccc(S(=O)(=O)N3CCCCC3)cc12 | 8.33
28 | CS(=O)(=O)N1Cc2ccccc2CC1C(=O)Nc1ccccc1C(N)=O (stereo not shown) | 5.22
29 | CC1(C)NC(=O)N(CCCCOc2ccc3ccccc3c2Cl)C1=O | 10.8
30 | COc1ccccc1-c1nc(SCC(=O)Nc2cc(C)on2)c2c(=O)n(C)c(=O)n(C)c2n1 | -7.36
31 | CCOC(CNc1c([N+](=O)[O-])c(=O)n(C)c(=O)n1C)OCC | 16.3
32 | O=C(NC1CCCCC1)c1ccc(S(=O)(=O)N2CCCCC2)cc1 | 7.45
33 | CCc1ccc(NC(=O)Cn2nc(C)c([N+](=O)[O-])c2C)cc1 | 11.6
34 | CC(=O)c1nc(N2C(=O)C3CC=C(C)CC3C2=O)sc1C (stereo not shown) | 15.8
35 | CC1=NN(c2ccc(Cl)cc2)C(=O)/C1=C\c1cccn1-c1ccc(S(N)(=O)=O)cc1 | 13.1
36 | CCN(CCn1cccn1)C(=O)CCc1nnc(CCCc2ccccc2)o1 | -11.6
37 | Cc1ccc(C)n1-c1ccc(N2CCOCC2)nc1 | 4.5
38 | CCN(C(=O)COC(=O)c1cc(=O)c2ccccc2o1)c1c(N)n(Cc2ccccc2)c(=O)[nH]c1=O | -1.09
39 | Cc1ccc(NC(=O)CN(C)C(=O)Cn2ccsc2=N)cc1.Cl | 16.9
40 | COC(=O)c1ccccc1NC(=O)CN1CCC(n2nnc3cc(C(F)(F)F)ccc32)CC1 | 12.3
41 | CCOc1ccc(C2/C(=C(/O)c3ccc(S(=O)(=O)N4CCCCC4)cc3)C(=O)C(=O)N2CCCOC)cc1OC (stereo not shown) | 10.8
42 | Cc1nnsc1S(=O)c1ccc(Cl)c(Cl)c1 (stereo not shown) | 8.53
43 | Cc1nc2sc(C(=O)O)c(N)c2c2c1COC(C)(C)C2 | 9.47
